# Whole data set: some 16,000 sequences, median “Z-score” near -0.37, cut for the highest 2% near 3.1. The list shows a part of the results.
# Tested on: RBM10 RRM1-ZnF-RRM2 (GST-tagged construct)
# Assay: RNAcompete 7-mer binding Z-score; higher = stronger binding preference
# Procedure: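 RNAcompete: 20 pmol GST-tagged RBM10 RNA-binding constructs were incubated with a designed RNA pool of about 241,000 sequences up to 41 nt (1.5 nmol) on glutathione beads for 30 min at 4 °C and washed. Bound RNAs were identified by microarray hybridisation. Each RNA 7-mer is scored by a one-sided Z-score of its enrichment, computed over probes that contain the 7-mer within longer pool sequences.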
row,Sequence,RNAcompete 7-mer binding Z-score
1,GUCCGGA,0.122
2,UGUAUCC,-0.562
3,GCUACUA,-0.555
4,CAGGCAC,0.151
5,CAAUAAG,-0.0161
6,GACCCCG,-0.686
7,GUCCACG,-0.271
8,AAUCUGC,-0.916
9,GUGAAUC,0.283
10,GUUUUUU,-0.428
11,UCUGACU,-0.734
12,CCUGUCA,-0.81
13,UUGUCCU,-0.828
14,GGCAAUU,0.425
15,GUUGCCG,-0.216
16,CGACCCU,-0.635
17,GGCCACA,-0.0889
18,UAGGCUC,-0.289
19,UCUCCAC,-0.806
20,UGGAAUG,1.95
21,UAACAGG,1.14
22,AUGGUGG,3.33
23,AACAAAU,-0.227
24,GCGCCAC,-0.533

row,Sequence,RNAcompete 7-mer binding Z-score
1,GAAACUU,-0.657
2,CGCAAUU,-0.679
3,GUUAAAA,0.0131
4,CCUGAGG,-0.00877
5,CGUGUCG,-0.286
6,UCGGAGA,0.723
7,UUACUUA,-0.839
8,CAGCGUC,-0.508
9,CCAUGCC,-0.704
10,CUCAGCA,-0.606
11,UCAGAGC,-0.246
12,CGCGAGC,-0.42
13,AAGAGGA,1.99
14,AUAGUUG,0.111
15,UCCGCCG,-0.839
16,GAUGGUG,2.77
17,ACACUAA,-0.402
18,CCGUAUC,-0.876
19,UUUCUCC,-0.825
20,CAUACAA,-0.271
21,AAGUCAU,-0.497
22,ACCGUCG,-0.628
23,CAUUUCC,-0.89
24,CUUCCCA,-0.817

row,Sequence,RNAcompete 7-mer binding Z-score
1,ACAUGCU,-0.602
2,UCGGCUU,-0.679
3,CUAUAUG,-0.526
4,GAACGAA,0.359
5,UCCUGCA,-0.686
6,AAUACAA,-0.267
7,UGUAAGC,-0.216
8,UUAAACC,-0.639
9,CGAUGGA,1.31
10,ACAGUCU,-0.792
11,UCCAUGA,-0.402
12,GGUCGUU,0.403
13,ACUGGUC,-0.398
14,UAUGCAU,-0.26
15,UCCCUGA,-0.788
16,CGACUUU,-0.832
17,ACGUGAA,-0.0525
18,GAUUCAC,-0.479
19,GACGUGA,0.421
20,CUCCAUA,-0.755
21,GUGUCAG,0.366
22,AUUUCGU,-0.632
23,UUUGUGU,-0.362
24,CCUGGGG,0.618

row,Sequence,RNAcompete 7-mer binding Z-score
1,GCGGGCA,2.22
2,GAGCGGA,3.55
3,UAACACU,-0.621
4,GCAGAUU,-0.125
5,AUGUAGC,0.0277
6,CCGUCUA,-0.752
7,CUGGGCC,-0.176
8,CACCGGG,0.654
9,CGUUACA,-0.307
10,CUUGGGU,0.763
11,UAAUGAA,-0.133
12,AGUGGUG,2.24
13,CACUGGG,1.31
14,ACCGGCA,-0.133
15,UUUCUCA,-0.788
16,AAAAGUU,-0.3
17,UGAGAGC,0.457
18,GACCAUU,-0.766
19,CCGCCUC,-0.792
20,UUUAACC,-0.77
21,GUCAUGC,-0.453
22,UAUUGGU,0.516
23,AUAUAUG,0.0349
24,CACACUA,-0.581

row,Sequence,RNAcompete 7-mer binding Z-score
1,CACAGUC,-0.453
2,UGCAUGA,-0.165
3,CUCCAUC,-0.839
4,GGAUUGG,3.28
5,GUAUCGC,-0.125
6,AAAUAGA,0.359
7,ACGCGCG,-0.176
8,AGGGAGA,2.67
9,GCUGAGC,0.0277
10,GUACUGC,-0.205
11,CAUCUUU,-0.868
12,CCUAUGC,-0.788
13,AAAGGGA,4.13
14,AGGCCGA,-0.027
15,CGCACCU,-0.635
16,AUGCAAC,-0.133
17,CGUCAGC,-0.555
18,UGUCACA,-0.588
19,AAUCAGG,1.32
20,UAAACAU,-0.508
21,GCGUUAC,0.00944
22,UGCUGGG,1.16
23,GGCAUAU,0.468
24,ACCUCUG,-0.814

row,Sequence,RNAcompete 7-mer binding Z-score
1,CUAUUGG,-0.428
2,AAUAAAA,-0.409
3,CGCUCGA,-0.621
4,CAACAUC,-0.493
5,CUGGUCC,-0.515
6,CGGUCUA,-0.49
7,UCGCACC,-0.726
8,GGGUCAA,1.82
9,CGCCCCG,-0.61
10,AGAGUCC,-0.533
11,UGGUUUA,0.574
12,GCACGGC,0.184
13,UCUUCUA,-0.781
14,UGGGCCG,1.11
15,UAAGGGG,3.11
16,GACCCAA,-0.788
17,UGUAAUU,-0.526
18,CGCUUCA,-0.697
19,AUUACUA,-0.522
20,AAGGCGA,2.56
21,AAAUGGA,3.34
22,GCUGAUU,-0.391
23,ACCUGUU,-1.07
24,GCUUUCA,-0.759

row,Sequence,RNAcompete 7-mer binding Z-score
1,GCGUCUU,-0.581
2,UAACAGA,0.0896
3,GAGUAGA,1.4
4,GUGGUGG,3.78
5,AACGGUC,-0.0415
6,AUAAGUC,-0.402
7,AGCAUAA,-0.202
8,GGAGUAA,1.3
9,UUUCGUA,-0.599
10,UGUCCUG,-0.686
11,UGCACUG,-0.154
12,UCCUAGG,-0.264
13,AGUGAGC,0.731
14,AGGCUAA,0.202
15,GCUCCUA,-0.879
16,AUUGCCA,-0.766
17,GACUAGU,-0.227
18,UACACCA,-0.449
19,CAAAAGC,-0.369
20,CUUCCGA,-0.836
21,GCCCUAG,-0.511
22,GUAGCUC,-0.267
23,ACAGGCU,0.392
24,CCCUUCA,-0.868

row,Sequence,RNAcompete 7-mer binding Z-score
1,GGAUACU,0.672
2,UGGCAGC,0.803
3,AGCCGCA,-0.42
4,CAUGUGU,-0.151
5,CGGCGCU,-0.435
6,ACACCUU,-0.814
7,ACCGGAC,-0.235
8,AAGCACC,-0.566
9,CGAAUGG,1.4
10,AUAUAGU,-0.235
11,CUCGCAG,-0.333
12,UAACGGU,0.45
13,AGCUUCG,-0.795
14,UGUUAUA,-0.486
15,AUCACAU,-0.522
16,CCAAUAG,-0.0816
17,ACUCGUA,-0.606
18,GGGGUUG,3.23
19,CUUAGGC,-0.428
20,UAAGGAU,1.55
21,GACUUGG,0.385
22,AUGGCUC,-0.453
23,UAAAUCU,-0.744
24,GGAGUGG,4.61

row,Sequence,RNAcompete 7-mer binding Z-score
1,GCCUAGC,-0.803
2,AAGAGUC,-0.027
3,AAUUGUC,-0.701
4,AGAUUCC,-0.741
5,AAUCACC,-0.464
6,UCGUGAC,-0.541
7,AAUCAGC,-0.482
8,CAAGUUU,-0.77
9,AUGUUUU,-0.624
10,GUCCAAA,-0.424
11,CCAUAAA,-0.657
12,GGCACAG,1.15
13,GAAUAAC,-0.151
14,UAAUUGA,-0.395
15,UCAAAGU,-0.395
16,CUGCUAG,-0.766
17,CAGCGUA,-0.158
18,CACGGGC,0.541
19,CGGUGAC,0.308
20,AAGUACG,0.0786
21,CUGUCUA,-0.857
22,ACGCGAA,-0.249
23,UUUUUGA,-0.479
24,UUAGAUG,0.0677

row,Sequence,RNAcompete 7-mer binding Z-score
1,AGGAAUG,2.07
2,UAAAAUA,-0.482
3,UCGGUUU,-0.318
4,AUGCUAC,-0.555
5,GGCUCGC,-0.307
6,AGAUACG,0.221
7,GUUUGCA,-0.318
8,GACUACC,-0.741
9,CCUGACA,-0.712
10,UACACUU,-0.522
11,UAACAAA,-0.238
12,CCUUGAU,-0.781
13,UGAGCUG,0.337
14,GGAGGGC,3.27
15,UCGGUGG,1.56
16,UUACCUU,-0.843
17,CCGGUUA,-0.369
18,GAUGAAA,1.16
